Assay results taken from PubChem BioAssay AID493208 (National Center for Advancing Translational Sciences (NCATS), 2011).
Out of some 44,000 compounds screened, about 340 (0.77%) were called active. About 5% were inconclusive and are not listed. Calls follow the shape of the dose curve; as a rule, active = well fitted inhibition curve with a large enough effect; inconclusive = small, poorly fitted or top-dose-only effect; inactive = flat fitted curve, though single readings scatter. The list shows a part of the results.

experiment: Acumen qHTS Assay for Inhibitors of the mTORC1 Signaling Pathway in MEF (Tsc2-/-, p53-/-) Cells: Sytravon; settings: phospho-rpS6 immunofluorescence/PI, 24 h; series mostly up to 38.3 µM; activity change, negative = inhibition: at the top concentration;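 also: plate controls were DMSO for no effect and rapamycin for full effect; nearly all actives have a fitted effect of over 50% in size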
Procedure, shortened: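 Tsc2-/-, p53-/- mouse embryonic fibroblasts (empty-vector line) exposed to compound 24 hrs at 37 C, fixed, immunostained for phospho-rpS6 and counterstained with propidium iodide. Acumen laser scanning gives % positive cells from Alexa 488/PI ratio, thresholded using 7.5 nM rapamycin; PI count gives viability.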

Activity change, negative = inhibition, inactive:
CC(=O)c1cccc(Nc2nc(-c3ccccc3Cl)nc3ccccc23)c1 15.4%
Cc1ccccc1Cn1c2ccccc2c2cnn(CC(=O)NCCc3ccc(Cl)cc3)c(=O)c21 -5.9%
CC(CCCc1ccccc1)NC(=O)c1nn(-c2ccc(Cl)cc2)nc1CO (stereo unspecified) 5.46%
CC(C)c1cccc(C(C)C)c1NS(=O)(=O)c1cccs1 -24.4%
Cc1ccc2[nH]c3c(=O)n(CC(=O)N4CCCC(C)C4)ncc3c2c1 (stereo unspecified) 3.52%
O=C(NC1CC(=O)N(c2ccccc2)C1)c1ccc(S(=O)(=O)N2CCCC2)cc1 (stereo unspecified) -2.98%
Nc1ncc(S(=O)(=O)NCc2ccc(F)cc2)cn1 -8.96%
COc1ccc(CNC(=O)C2CCN(S(=O)(=O)c3ccc4c(ccn4C)c3)CC2)cc1 -0.745%
CCOC(=O)c1c(C)[nH]c(C)c1S(=O)(=O)NCC(=O)N1CCN(c2ccccc2F)CC1 -2.98%
COc1ccc(C(=O)CCC(=O)Nc2cc(C)ccc2C)cc1 -11.2%
Cc1cccc2sc(N(Cc3cccnc3)C(=O)COc3ccccc3)nc12 -1.17%
CCOc1ccccc1NC(=O)c1cc2c(=O)[nH]c3ccccc3c2s1 -11.4%
Cc1noc2ncnc(N3CCCC(C(=O)Nc4cccc(C(F)(F)F)c4)C3)c12 (stereo unspecified) 4.76%
CCc1ccc(NC(=O)c2ccc(F)c(S(=O)(=O)N3CCN(c4cc(C)ccc4C)CC3)c2)cc1 3.99%
CC(C)c1ccc(NC(=O)Cn2c(=O)oc3cc(S(=O)(=O)N4CCCC4)ccc32)cc1 0.428%
CCc1c(C)c(C#N)c2nc3ccccc3n2c1Nc1cccc(C(F)(F)F)c1 -21.2%
COc1ccc(-c2nc(S(=O)(=O)c3ccc(C)cc3)c(NCc3ccccc3)o2)cc1 -7.41%
Cn1cc(-c2cc3n(n2)CCC(=O)N3CCCC(=O)Nc2ccccc2F)c2ccccc21 -4.78%
CCc1cccc(NC(=O)C(CC)n2nc(C)c3sc4ccccc4c3c2=O)c1 (stereo unspecified) 3.21%
Cc1c(C(=O)NCc2ccccc2Br)oc2ccc3c(c12)C(=O)CC(C)(C)O3 0.879%
COc1ccc(NC(=O)c2sc3nc4c(cc3c2N)CN(Cc2ccccc2)CC4)cc1OC -7.32%
CC(C)c1ccc(NC(=O)C(Cc2ccccc2)NS(=O)(=O)c2ccc3c(c2)oc(=O)n3C)cc1 (stereo unspecified) -27.2%
Cc1noc(-c2ccc(-c3noc(-c4ccc(C(F)(F)F)cc4)n3)cc2)n1 -12%
O=C(NCCCN1CCN(c2ccc(F)cc2)CC1)c1ccc2nc(CCc3ccccc3)oc2c1 1.75%
COc1ccc(Nc2nc(-c3ccccc3F)nc3ccccc23)cc1OC 4.53%
CCOc1ccc(CC(=O)NCc2ccc3c(c2)CCN3C(C)=O)cc1OCC -0.0786%
CN(C)CCNC(=O)Cn1nc(N2CCN(c3ccccc3)CC2)ccc1=O 10.2%
COc1ccc(NC(=O)CCc2nnc3n(CC(C)C)c(=O)c4ccccc4n23)cc1OC -1.61%
CC(C)(C)OC(=O)N1CCC(c2c(C(=O)N3CCN(c4ncccn4)CC3)cnn2-c2cccc(F)c2)CC1 1.12%
Cc1ccc(O)c(NC(=O)COCc2cc(-c3ccco3)on2)c1 0.594%
COc1ccc(OC)c(NC(=O)Cn2cc(C(=O)c3ccc(Cl)cc3)c(=O)c3cc(OC)ccc32)c1 -11.6%
CC(=O)Nc1nonc1-c1nnc(SCc2ccccc2Cl)n1C 1.23%
COc1ccc(-c2cc(C(=O)Oc3cccc(C)c3C)c3ccccc3n2)cc1 8.3%
COc1ccc(NC(=O)c2ccc3c(c2)CCN3S(=O)(=O)c2ccccc2)cc1 0.814%
COc1cc2c(cc1OC)n(CC(=O)c1ccc(C)cc1)c(=O)n1nc(CCn3nc(C)cc3C)nc21 0.105%
Fc1ccccc1C1=NC(c2ccc(C(F)(F)F)cc2)=Nc2ccccc2N1 5.23%
CCOc1ccccc1CN1CCc2nc(Nc3ccccc3)ncc2C1 1.55%
COc1cc(CN2CCN(S(=O)(=O)c3ccc(F)cc3)CC2)cc(OC)c1OC 4.13%
O=C(NCc1ccccn1)c1nn(-c2ccccc2F)nc1CO -4.01%
COc1ccc(CCN2C(=O)CN(C3CCCCCC3)C(=O)C2c2ccc(C)cc2)cc1OC (stereo unspecified) 9.16%
COC(=O)c1cc(OC)c(OC)cc1NC(=O)c1ccc2c(c1)CCN2S(=O)(=O)c1ccccc1 -1.1%
Fc1ccc(-n2ncc3c(N4CCN(Cc5ccccc5)CC4)ncnc32)cc1 5.9%
CCc1ccc(CNC(=O)c2ccc3c(c2)nc2n3CCCCC2)cc1 3.65%
COc1ccc(OC)c(CCNC(=O)CN2C(=O)COc3ccc(S(=O)(=O)N4CCCCCC4)cc32)c1 5.32%
COc1cccc(CNC(=O)CSc2n[nH]c(-c3ccccc3Cl)n2)c1 2.76%
Cc1ccc(C)c(Cn2cnc3ccccc3c2=O)c1 -9.14%
COc1cccc(CNC(=O)CCNS(=O)(=O)c2ccc3c(c2)CCCC(=O)N3)c1 -2.82%
CC1=C(C(=O)Nc2ccccc2)C(c2cccs2)n2nc(SCc3ccccc3)nc2N1 (stereo unspecified) 0.185%
O=C(Nc1c2c(nn1-c1ccc(Cl)cc1)CS(=O)(=O)C2)c1cccc(Cl)c1 -0.361%
CCc1cccc(NC(=O)CN2c3ccccc3S(=O)(=O)c3ccccc32)c1 -11.2%
CC(=O)N1c2ccc(S(=O)(=O)NCCC(=O)Nc3ccc(C)cc3Br)cc2CC1C (stereo unspecified) -19.5%
O=C(CSc1ccc2nnc(CCNS(=O)(=O)c3ccccc3)n2n1)Nc1ccccc1C(F)(F)F 1.93%
Cc1ccc(CNC(=O)Cn2ccn(-c3cc(C)cc(C)c3)c(=O)c2=O)cc1 4%
COc1ccccc1NC(=O)Cn1nc(C)n2cccc2c1=O -6.44%
COc1ccc(OC)c(NC(=O)c2cc3cc4ccc(C)cc4nc3s2)c1 -0.276%
CCOc1ccc(-c2cc(NC(=O)Nc3ccccc3C(F)(F)F)c(C(=O)OC)s2)cc1 -12.5%
COC(=O)c1ccc(Cn2c(SCC(=O)Nc3ccc(F)cc3)nc3ccccc32)cc1 0%
Cc1ccc(N2CC(C(=O)NCc3nnnn3-c3ccc(C)c(C)c3)CC2=O)cc1 (stereo unspecified) 5.39%
CCCCN(CC)Cc1ccc(CNS(=O)(=O)c2cc3c(cc2Cl)NC(=O)CO3)o1 -14.6%
CCOc1ccc(NC(=O)Cn2c(=O)n(Cc3ccc(C(=O)NCc4ccc5c(c4)OCO5)cc3)c(=O)c3ccccc32)cc1 -10.4%
CCCCOc1ccc(C(=O)Nc2ccc3c(c2)CCCN3S(=O)(=O)c2ccc(C)cc2)cc1 4.25%
CCOc1ccc(NC(=O)Cn2c(=O)cc(C)c3c(C)nn(-c4ccc(CC)cc4)c32)cc1 -2.13%
COc1ccc(C(=O)Nc2ccccc2C(=O)OCc2cc(=O)n3nc(C4CC4)sc3n2)cc1 1.44%
CCOC(=O)N1CCc2c(sc3c2c(=O)n(-c2ccc(CC)cc2)c(=O)n3Cc2cc(C)ccc2C)C1 -4.81%
CCOc1ccccc1NC(=O)C1CCCN(S(=O)(=O)c2cn(C)cn2)C1 (stereo unspecified) 0%
CCOC(=O)c1c(C)oc2nc(C)nc(Nc3cc(C)ccc3OC)c12 0%
CCc1nnc(NC(=O)CSc2nc3c([nH]c4ccccc43)c(=O)n2-c2ccc(OC)cc2)s1 -2.61%
O=C(C1CCCCC1)N(Cc1cccnc1)c1nc2ccc(F)cc2s1 0.444%
CCc1cccc(NC(=O)COc2cc(=O)n(CC)c3ccccc23)c1 -6.68%
Cn1ccc2cc(S(=O)(=O)N3CCN(C(=O)Nc4ccccc4F)CC3)ccc21 -10.9%
Nc1nc(N)c(S(=O)(=O)c2ccccc2)c(Nc2ccc(F)cc2)n1 2.74%
CCOC(=O)c1c(Nc2cccc(C)c2)nnc(-c2ccccc2)c1-c1ccccc1 -3.45%
CCCc1cc(=O)[nH]c(Nc2ccc(O)cc2C)n1 -1.01%
O=C(CSc1nc2ccccc2nc1Cc1ccccc1)N1CCCc2ccccc21 4.76%
CCOC(=O)c1cccc(NC(=O)c2sc3nc[nH]c(=O)c3c2C)c1 4.13%
COc1cc(-c2ccno2)ccc1S(=O)(=O)N1CCN(c2ccc(F)cc2)CC1 -0.196%
CCc1ccc2occ(CC(=O)N(Cc3ccc(N(C)C)cc3)C3CCS(=O)(=O)C3)c2c1 (stereo unspecified) 4.34%
CCOC(=O)N1CCC(NC(=O)c2ccc3c(c2)N(Cc2ccc(Cl)cc2)C(=O)c2ccccc2S3=O)CC1 (stereo unspecified) -26.9%
Cc1cccc(N(C)S(=O)(=O)c2nnc(NC(=O)C3CCCCC3)s2)c1 -1.87%
CCNc1sc(S(C)(=O)=O)nc1S(=O)(=O)c1ccc(C)cc1 -3.93%
CCCCc1nn2c(=O)cc(COC(=O)c3cccs3)nc2s1 -6.15%
Cc1ccc(Cn2c(=O)n(Cc3ccccc3Cl)c(=O)c3cccnc32)cc1 -7.2%
Cn1c(=O)n(C)c2cc(N3CCCC3)c(NC(=O)Nc3ccccc3)cc21 -4.58%
Clc1cccc(-n2ncc3c(N4CCCCCC4)ncnc32)c1 2.4%
Cc1cc(C(=O)N2CCN(c3cc(Cl)ccc3C)CC2)c2c(C)nn(-c3ccccc3)c2n1 1.03%
CCc1ccc(NC(=O)CCNC(=O)Cn2cnc3ccccc3c2=O)cc1 5.52%
Cc1ccc(CNC(=O)c2cccc(Nc3nc4ccccc4n4nnnc34)c2)cc1 -0.0531%
Cc1ccc(NC(=O)Cn2ncn3c(cc4ccccc43)c2=O)cc1C -3.41%
COC(=O)c1ccccc1NC(=O)Cn1c(=O)n(CCCCC(=O)NCc2ccc3c(c2)OCO3)c(=O)c2ccccc21 6.84%
COc1cc(OC)c(NC(=O)c2c(C)oc3ncnc(N4CCCCC4)c23)cc1Cl 6.8%
Cc1ccc(N2CCN(c3nc4ccccc4c4nnc(C)n34)CC2)c(C)c1 -1.16%
Cn1c(=O)c2c(nc(N3CCOCC3)n2Cc2ccccc2)n(C)c1=O -0.064%
CCOC(=O)c1c(C)[nH]c(C)c1S(=O)(=O)N(C)CC(=O)N1CCN(c2cccc(Cl)c2)CC1 1.83%
Cc1cccc(C)c1NC(=O)Cn1cc(S(=O)(=O)Cc2ccc(F)cc2)c2ccccc21 -2.57%
COc1ccc(C(=O)Nc2nnc(SCc3cc(=O)n4cc(Cl)ccc4n3)s2)cc1 13.7%
Cc1ccc(CNC(=O)CN2C(=O)COc3ccccc32)cc1 12.5%
